Results as given in the supplement of paper PMC10441789.
The other results are listed elsewhere or left out. Antibody binding of pooled human sera (four to six donors per pool; dilution not stated) to peptides of the Trypanosoma cruzi antigen TSSA on microarrays. Quantile-normalised fluorescence in arbitrary units, mean of duplicate arrays; higher = more binding. No active / inactive call. The uninfected pools are read here as the healthy donors of the same country. The strongest signals lie near the top of the scale (about 60,000).

How the values were obtained:
Assay in all cases: antibody binding signal (normalised fluorescence) (arbitrary fluorescence units); higher = stronger serum antibody binding to peptide
[1] = tested on: pooled sera of chronic Chagas disease patients, Argentina
Description: (§1)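 Microarray of 15-residue peptides over residues 30-55 of Trypanosoma cruzi TSSAII, each with 1 to 10 substitutions at naturally variable positions, probed with one serum pool per country.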

[2] = tested on: pooled sera of chronic Chagas disease patients, Bolivia
Description: as §1

[3] = tested on: pooled sera of chronic Chagas disease patients, Brazil
Description: as §1

[4] = tested on: pooled sera of chronic Chagas disease patients, Colombia
Description: as §1

[5] = tested on: pooled sera of chronic Chagas disease patients, Mexico
Description: as §1

[6] = tested on: pooled sera of chronic Chagas disease patients, USA
Description: as §1

[7] = tested on: pooled sera of uninfected people, Argentina
Description: as §1

[8] = tested on: pooled sera of uninfected people, Bolivia
Description: as §1

[9] = tested on: pooled sera of uninfected people, Brazil
Description: as §1

[10] = tested on: pooled sera of uninfected people, Colombia
Description: as §1

[11] = tested on: pooled sera of uninfected people, Mexico
Description: as §1

[12] = tested on: pooled sera of uninfected people, USA
Description: as §1

Sequence | antibody binding signal [1] | antibody binding signal [2] | antibody binding signal [3] | antibody binding signal [4] | antibody binding signal [5] | antibody binding signal [6] | antibody binding signal [7] | antibody binding signal [8] | antibody binding signal [9] | antibody binding signal [10] | antibody binding signal [11] | antibody binding signal [12]
KEKKPATGEAPSQSG | 42100 | 25800 | 37800 | 176 | 199 | 29700 | 782 | 247 | 117 | 179 | 111 | 397
NKAATGETPSPPGAS | 1320 | 3220 | 24100 | 273 | 165 | 8790 | 480 | 1050 | 278 | 628 | 173 | 1950
ENKAATGGTPSQPGA | 484 | 2240 | 12800 | 1660 | 440 | 1930 | 502 | 153 | 534 | 352 | 1180 | 162
KPATGGAPSPSGASS | 775 | 2320 | 469 | 262 | 2490 | 1130 | 291 | 976 | 170 | 122 | 98.3 | 282
PPSGTEKKPAAGGAP | 40900 | 4460 | 35900 | 4070 | 8100 | 6340 | 1660 | 1090 | 718 | 378 | 334 | 1090
GTENKAATGGTPSQP | 39000 | 1640 | 10800 | 1180 | 979 | 1930 | 264 | 299 | 301 | 229 | 1040 | 116
SGKEKKAATGEAPSP | 23200 | 6350 | 19700 | 1200 | 3010 | 19300 | 568 | 200 | 101 | 245 | 99.2 | 137
GKENKPAAGEAPSQP | 16400 | 8170 | 41600 | 14300 | 17400 | 22200 | 644 | 295 | 153 | 150 | 299 | 102
TEKKPATGEAPSQSG | 50900 | 45400 | 49800 | 329 | 416 | 45700 | 1000 | 620 | 417 | 289 | 305 | 587
GTENKAAAGEAPSQP | 39600 | 23600 | 27100 | 2670 | 2730 | 12800 | 111 | 463 | 130 | 130 | 92.9 | 110
TPPSGTDKKPATGGA | 31200 | 17700 | 43900 | 11000 | 37400 | 5720 | 1280 | 1310 | 308 | 340 | 3570 | 787
GTENKPAAGGTPSPP | 43100 | 2910 | 4220 | 1110 | 1360 | 531 | 406 | 1980 | 1080 | 559 | 249 | 150
TPPSGKDNKAATGEA | 3260 | 6060 | 3650 | 326 | 14000 | 4950 | 208 | 682 | 258 | 245 | 102 | 99.8
TDNKPAAGETPSQSG | 939 | 460 | 19700 | 356 | 196 | 2440 | 77.4 | 462 | 200 | 176 | 375 | 83.8
KDNKPAAGETPSPPG | 466 | 184 | 17800 | 349 | 203 | 3200 | 377 | 440 | 221 | 315 | 423 | 990
EKKAATGETPSQSGA | 1970 | 1840 | 17600 | 263 | 424 | 10700 | 639 | 741 | 177 | 1060 | 342 | 812
PSGKDKKPATGETPS | 27100 | 9120 | 18200 | 3020 | 4660 | 18900 | 183 | 477 | 131 | 130 | 1100 | 131
PSGKDKKAAAGGAPS | 3740 | 840 | 2970 | 7610 | 6100 | 5320 | 131 | 305 | 108 | 99.5 | 83.5 | 100
KPATGEAPSQSGASS | 50500 | 47900 | 50000 | 146 | 290 | 33900 | 1080 | 706 | 265 | 198 | 267 | 229
PPSGTDNKAAAGETP | 26300 | 39400 | 47300 | 1130 | 607 | 5490 | 522 | 679 | 1390 | 236 | 239 | 227
SGTDNKAAAGGTPSP | 258 | 243 | 44900 | 4340 | 367 | 994 | 157 | 693 | 2500 | 532 | 191 | 222
TDNKPATGETPSQSG | 38900 | 30200 | 35600 | 288 | 245 | 28000 | 290 | 472 | 380 | 133 | 2010 | 125
KDKKPAAGEAPSQPG | 2510 | 8910 | 33400 | 153 | 172 | 11500 | 102 | 223 | 97.8 | 86.7 | 69.1 | 95.9
TPPSGKEKKTAAGET | 5030 | 425 | 972 | 683 | 19800 | 1770 | 424 | 590 | 101 | 1460 | 174 | 140
TPPSGTDNKPAAGET | 29400 | 43600 | 41300 | 3370 | 11800 | 22600 | 2150 | 814 | 547 | 603 | 935 | 335
